# Reference: the supplement of paper PMC4166925
# ± gives the standard deviation of the averaged measurements. In all, about 33,000 sequences were measured (“E-score (dimensionless, -0.5 to 0.5)”: median about -0.049, highest 2% from about 0.37 on). This is one part of the list.
# Test system: T1, PmTbr T-box DNA-binding domain (GST fusion)
# T1 sequence: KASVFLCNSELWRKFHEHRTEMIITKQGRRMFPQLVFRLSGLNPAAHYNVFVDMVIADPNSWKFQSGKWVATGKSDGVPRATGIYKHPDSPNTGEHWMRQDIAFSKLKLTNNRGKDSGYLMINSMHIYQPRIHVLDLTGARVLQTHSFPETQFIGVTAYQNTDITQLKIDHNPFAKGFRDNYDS
# Test: PBM E-score of 8-mer (E-score (dimensionless, -0.5 to 0.5)); Tbr is Tbrain of the sea star Patiria miniata (Pm) or the sea urchin Strongylocentrotus purpuratus (Sp); higher = stronger binding preference; most listed sequences are background and not binding sites
# Conditions: the construct has about 5 more residues each side
# Outline: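 GST-fused Tbr T-box DNA-binding domains (the whole T-box plus about five flanking residues) were expressed in BL21 E. coli at 20 °C and purified by glutathione affinity chromatography. Universal Agilent oligonucleotide arrays were made double-stranded by primer extension, incubated with 200 nM protein in PBS (pH 7.5), then scanned and quantified. Every ungapped 8-mer was scored from probe intensities. The Universal PBM Analysis Suite gave each word an enrichment E-score, averaged over duplicate arrays.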
row,Sequence,PBM E-score of 8-mer
1,CTGGAACA,-0.0692 ± 0.018
2,CCCGCTGC,-0.0271 ± 0.056
3,CGCGCTGC,0.163 ± 0.024
4,AGTCACTC,0.0567 ± 0.037
5,AGTTGATA,0.135 ± 0.072
6,GACTCACA,0.277 ± 0.055
7,CTGAACAG,-0.00301 ± 0.016
8,CTCGATCA,0.0196 ± 0.0013
9,ACGCGAAA,0.133 ± 0.039
10,ATCTAGTC,-0.203 ± 0.026
11,AGCTAAAC,-0.183 ± 0.016
12,CGTCCTCC,-0.316 ± 0.021
13,CGTTATGA,0.015 ± 0.021
14,AAAACTGT,0.107 ± 0.11
15,AAACTTAC,0.0511 ± 0.054
16,AGAGTCGA,-0.0112 ± 0.044
17,CTGACGAA,0.0955 ± 0.048
18,GCACTGCA,-0.101 ± 0.0072
19,GACGCTAA,0.174 ± 0.044
20,ATGGGATC,-0.177 ± 0.02
21,CCCCACCA,-0.104 ± 0.066
22,ACGGTCCC,-0.134 ± 0.016
23,AGCAAACC,-0.134 ± 0.014
24,CGGTCACG,0.138 ± 0.054
25,GCCGGCTA,-0.0619 ± 0.027

row,Sequence,PBM E-score of 8-mer
1,AACTCGGT,-0.129 ± 0.011
2,AATGAAAT,-0.113 ± 0.065
3,GCTCTACC,0.0252 ± 0.074
4,AAAAAGAA,-0.231 ± 0.12
5,AGTATCCC,-0.0929 ± 0.077
6,AACATTGT,0.104 ± 0.049
7,TCTCTGAA,-0.13 ± 0.039
8,AATTACGG,-0.271 ± 0.01
9,ATAGAATC,-0.0962 ± 0.04
10,ACATGATG,0.178 ± 0.017
11,GTTTTTAA,-0.131 ± 0.14
12,AACCCATA,0.117 ± 0.051
13,ACCGTCGG,-0.218 ± 0.057
14,ATCGCCGG,-0.0499 ± 0.037
15,GCTCCACC,0.0538 ± 0.037
16,ACCCCTCG,0.0543 ± 0.046
17,AGCTCAAC,-0.0632 ± 0.1
18,AGTGACTG,0.105 ± 0.051
19,AGTGCTGC,0.0868 ± 0.0037
20,CAGTTATC,0.0106 ± 0.071
21,AAACTCTA,-0.0768 ± 0.0047
22,CAGGTTAA,-0.177 ± 0.069
23,CTATGAGA,-0.223 ± 0.036
24,AAAATCTA,0.122 ± 0.046
25,ATGATGGC,-0.0836 ± 0.076

row,Sequence,PBM E-score of 8-mer
1,AGCTACAA,-0.25031 ± 0.00016
2,ACGAGAGA,-0.1623 ± 0.00055
3,AAAATAGA,-0.291 ± 0.067
4,ATTCAGTC,-0.149 ± 0.033
5,AAATCACA,0.362 ± 0.038
6,AGCGGCCA,-0.0735 ± 0.1
7,CGATCCCC,-0.0111 ± 0.13
8,GATGCTAC,-0.0723 ± 0.021
9,CCCGTGCC,-0.0277 ± 0.0075
10,GAGACTCC,-0.0191 ± 0.097
11,CAAAAGTG,0.316 ± 0.032
12,CGCTGTCC,-0.197 ± 0.032
13,AGGAGAGA,-0.019 ± 0.041
14,GTCAAGTA,0.182 ± 0.0095
15,CGAAAGTC,0.0804 ± 0.023
16,AAAGAGTG,0.197 ± 0.068
17,CACTGCGC,0.156 ± 0.022
18,GTCCACTA,-0.192 ± 0.057
19,AGTAAAAG,-0.142 ± 0.0089
20,AACCCAGG,-0.176 ± 0.0097
21,ATTGCGAA,0.27169 ± 0.00012
22,AGTCGGTA,0.0807 ± 0.042
23,ACTCTACC,-0.191 ± 0.01
24,TGGAAGAA,-0.213 ± 0.053
25,ATCATGCC,-0.19 ± 0.004

row,Sequence,PBM E-score of 8-mer
1,GGTGGTAA,0.3413 ± 0.0013
2,ATAATTAG,-0.077 ± 0.0093
3,ACCATGTG,0.202 ± 0.018
4,TCCCATCA,-0.0906 ± 0.0075
5,AAAGCGTC,0.169 ± 0.02
6,GCGTGGAA,0.131 ± 0.019
7,GTACAAAC,-0.141 ± 0.13
8,TATGGTAA,-0.2 ± 0.011
9,GGCATGTA,-0.298 ± 0.027
10,CATCCACC,-0.0688 ± 0.032
11,GTAAGAAA,0.0389 ± 0.083
12,CCAGACCG,-0.2614 ± 0.0022
13,AACGAGTC,-0.154 ± 0.018
14,AGCATTGG,-0.13 ± 0.022
15,AGCCTCGC,-0.0403 ± 0.096
16,CATAACCA,-0.0323 ± 0.065
17,GTGAGTCA,0.224 ± 0.084
18,ATTAGTGA,0.105 ± 0.05
19,AGCCCGGC,-0.0286 ± 0.0078
20,AAAGTACT,-0.126 ± 0.067
21,CCCACAGC,-0.0631 ± 0.061
22,GCGGAATA,-0.00213 ± 0.0067
23,GCATGAAC,0.042 ± 0.029
24,CGGCGTTC,-0.052 ± 0.049
25,CCTAGTAG,-0.0647 ± 0.067

row,Sequence,PBM E-score of 8-mer
1,ATTGATAA,-0.158 ± 0.098
2,CCCGACGA,-0.044 ± 0.062
3,CCTGGTAA,0.098 ± 0.0073
4,ACCATCGT,-0.0823 ± 0.0028
5,CAGATGGG,-0.0596 ± 0.028
6,CAAGACGG,0.0261 ± 0.063
7,ACCGAATA,-0.00183 ± 0.016
8,GTCCCGGA,-0.189 ± 0.039
9,CACCATGC,0.201 ± 0.029
10,AGCACAAA,-0.145 ± 0.017
11,GAGTTTTA,-0.0137 ± 0.067
12,CCCCTTAA,-0.195 ± 0.041
13,TCTCGGCA,0.055 ± 0.037
14,ACACATAA,0.251 ± 0.0089
15,GCACGCAC,0.18 ± 0.093
16,AACGGGAG,0.037 ± 0.067
17,TCACGCGA,0.357 ± 0.027
18,TAGACGGA,-0.2 ± 0.012
19,AAGCTGCT,0.0723 ± 0.041
20,GAGCTTTA,-0.196 ± 0.0087
21,GCGGGACC,-0.0386 ± 0.0097
22,CCTCGAGA,-0.143 ± 0.026
23,ACCTCACT,0.189 ± 0.017
24,ACACGTAG,0.206 ± 0.0044
25,GTGGCTTA,-0.0817 ± 0.015

row,Sequence,PBM E-score of 8-mer
1,CGGTAGGC,0.0808 ± 0.045
2,CGCAGTCC,-0.0841 ± 0.063
3,GAGGCTTA,-0.18 ± 0.036
4,CTTCCAAC,-0.107 ± 0.058
5,CGTAGCAA,0.0169 ± 0.038
6,AGTGTACA,-0.126 ± 0.048
7,AGGGGAGA,-0.0806 ± 0.032
8,TTTTAAAA,-0.201 ± 0.035
9,TATAGTAA,-0.179 ± 0.11
10,CCCCCCTC,-0.272 ± 0.073
11,TAGTACGA,-0.175 ± 0.015
12,AAGCGCAT,-0.137 ± 0.061
13,CGAGTCGC,0.158 ± 0.06
14,ACCAATTA,-0.0574 ± 0.015
15,GACAACAC,0.391 ± 0.014
16,TCCCGCAA,-0.211 ± 0.0079
17,CGTGACGA,0.331 ± 0.031
18,ACACTACA,0.185 ± 0.076
19,ACGGAGGC,-0.192 ± 0.1
20,GGAGTTGA,-0.0606 ± 0.067
21,GATCACGC,0.287 ± 0.017
22,CTCCTAGC,0.0648 ± 0.041
23,ACGAATAG,0.0308 ± 0.068
24,CCAGTAGG,0.1953 ± 0.0019
25,TATTACCA,-0.0211 ± 0.043

row,Sequence,PBM E-score of 8-mer
1,ACTCTCCG,-0.0258 ± 0.0077
2,ACCCACTG,-0.124 ± 0.041
3,CAGTACCC,-0.00453 ± 0.072
4,GGCGTTCA,-0.0159 ± 0.093
5,ACCTAAAA,-0.0417 ± 0.06
6,TATACAGA,-0.169 ± 0.076
7,CGCATACA,-0.0826 ± 0.01
8,GCGGTAGA,-0.079 ± 0.075
9,ACTCTTAT,-0.0869 ± 0.047
10,CATCGCAC,0.373 ± 0.023
11,TCAGGACA,-0.115 ± 0.067
12,CGCGTCTC,-0.0373 ± 0.037
13,GACCGTTA,-0.0787 ± 0.011
14,CTAGTCGC,0.132 ± 0.046
15,CAGGAACA,-0.026 ± 0.01
16,CTAGACAA,-0.0799 ± 0.049
17,AGGGGGGC,-0.222 ± 0.034
18,GAAGCGGC,-0.0142 ± 0.051
19,AACTAGCC,-0.205 ± 0.024
20,GACGTGAA,0.0539 ± 0.037
21,ACAGCAAG,0.0389 ± 0.019
22,ACGGCCCC,-0.229 ± 0.069
